Laboratory results: PMC4336329 (PLoS ONE, 2015)
Among all 310,000 compounds or so, about 2,200 (0.71%) showed an effect of 50% or more. Effects have a minus sign here. The list shows a part of the results.

Target: human ether-à-go-go-related gene (hERG) potassium channel (human, UniProt Q12809)
Assay: primary screen, population patch clamp on CHO cells stably expressing hERG

Chain of human ether-à-go-go-related gene (hERG) potassium channel (Q12809 whole entry, looked up): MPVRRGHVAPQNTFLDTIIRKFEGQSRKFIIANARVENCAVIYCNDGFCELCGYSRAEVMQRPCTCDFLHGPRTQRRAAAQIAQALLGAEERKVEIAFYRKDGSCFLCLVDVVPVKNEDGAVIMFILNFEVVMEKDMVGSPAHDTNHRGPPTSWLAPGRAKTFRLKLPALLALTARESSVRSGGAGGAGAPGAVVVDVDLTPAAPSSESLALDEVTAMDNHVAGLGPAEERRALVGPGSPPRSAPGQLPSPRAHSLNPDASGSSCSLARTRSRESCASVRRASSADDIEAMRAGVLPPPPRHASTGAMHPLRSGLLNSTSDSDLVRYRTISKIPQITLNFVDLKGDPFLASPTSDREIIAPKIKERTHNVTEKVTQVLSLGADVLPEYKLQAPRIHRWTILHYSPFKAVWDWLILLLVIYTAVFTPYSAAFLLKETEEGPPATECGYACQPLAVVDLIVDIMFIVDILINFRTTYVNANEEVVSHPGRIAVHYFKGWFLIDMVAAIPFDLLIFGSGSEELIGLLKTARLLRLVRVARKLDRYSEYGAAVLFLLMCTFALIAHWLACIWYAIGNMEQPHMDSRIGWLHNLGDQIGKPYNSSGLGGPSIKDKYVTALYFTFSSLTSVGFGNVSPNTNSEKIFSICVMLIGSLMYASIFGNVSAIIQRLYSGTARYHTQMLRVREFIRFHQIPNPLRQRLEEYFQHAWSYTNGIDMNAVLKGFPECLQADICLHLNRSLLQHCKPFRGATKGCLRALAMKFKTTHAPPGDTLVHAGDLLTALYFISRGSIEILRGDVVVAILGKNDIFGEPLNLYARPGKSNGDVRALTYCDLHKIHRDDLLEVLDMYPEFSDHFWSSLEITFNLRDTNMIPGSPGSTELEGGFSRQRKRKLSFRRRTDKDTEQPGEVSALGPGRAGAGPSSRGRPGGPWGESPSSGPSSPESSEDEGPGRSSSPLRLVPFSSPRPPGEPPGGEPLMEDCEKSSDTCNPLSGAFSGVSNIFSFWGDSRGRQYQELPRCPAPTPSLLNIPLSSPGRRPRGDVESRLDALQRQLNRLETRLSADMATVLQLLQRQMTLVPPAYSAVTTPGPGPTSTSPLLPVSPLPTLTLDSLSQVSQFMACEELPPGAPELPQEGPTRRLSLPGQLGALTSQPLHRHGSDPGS

SMILES	hERG current change (%, negative = inhibition) at 1uM
O=S(=O)(NCc1ccc(Cl)cc1)c1ccc(Cl)nc1	2.6%
O=C(N/N=C/c1ccccn1)c1ccc(NC(=O)c2ccccc2Cl)cc1	7.55%
Cc1cccc(-c2oc3ccc(-c4ccc5c(c4)OCO5)cc3c2/C=C/c2ccc(N)cc2)c1	12.3%
O=C(c1ccc(OC2CCN(C/C=C/c3ccccc3)CC2)cc1)N1CCCCC1	-0.0296%
CCOC(=O)C1CCCN(C(=O)/C=C/c2cc(OC)c(OC)c(OC)c2)C1 (centres unmarked)	2.42%
NC(=O)CSc1nnc(-c2ccc(O)cc2)n1Cc1ccco1	2.96%
Cc1ccc(C(=O)Nc2ccccc2C(=O)N2CCCC2)cc1[N+](=O)[O-]	8.85%
O=C1c2ccccc2NC(c2cccc(O)c2)N1O (centres unmarked)	11%
CCn1c(SCC(=O)NCCc2ccccc2)nc2c(c1=O)SC(C)C2 (centres unmarked)	13.6%
CC(C)(C)c1cc(NC(=O)CCl)n(-c2ccccc2)n1	10.5%
Cc1csc(NC(=O)c2cccnc2Cl)n1	11.8%
N#Cc1ccc(Oc2cnccn2)cc1	13.1%
CC1Cc2ccccc2N1S(=O)(=O)c1cccc(C(=O)NCc2ccncc2)c1 (centres unmarked)	1.08%
COC(=O)C(Cc1ccccc1)NC(=O)c1cc(S(=O)(=O)N(C)C)ccc1Cl (centres unmarked)	12.8%
O=C(c1ccccc1)c1ccccc1C(=O)N1CCN(C(=O)c2ccccc2)CC1	4.35%
O=C(CCCn1c(SCc2cccc([N+](=O)[O-])c2)nc2ccccc2c1=O)NCC1CCCO1 (centres unmarked)	-29.2%
Cc1csc(NC(=O)CSc2nnc3c4ccccc4nc(C(C)(C)C)n23)n1	12.8%
Cc1cccc(NC(=O)C(CCC(N)=O)NC(=O)OCc2ccccc2)c1 (centres unmarked)	11.6%
O=C(Nc1ccccn1)c1ccc(COc2ccccc2Cl)o1	-1.97%
O=C(COC(=O)c1cccnc1Cl)c1ccc(Cl)cc1Cl	10.9%
Cc1cccc(C)c1OP(N)(=O)Oc1c(C)cccc1C	12.9%
CCn1c(-c2ccccn2)nc2cc(S(=O)(=O)N(C)C)ccc21	14.1%
Cc1ccn2cc(CCNC(=O)CC(C)(C)C)nc2c1	9.76%

SMILES	hERG current change (%, negative = inhibition) at 1uM
C/C(=N\OC(=O)c1cccc(C)c1)c1sc(-c2ccccc2)nc1C	8.48%
COc1cc(NS(=O)(=O)c2ccc(NC(=O)c3ccc(C)o3)cc2)nc(OC)n1	-2.48%
O=C(Nc1ccc(F)cc1)Nc1ccccc1NS(=O)(=O)c1cccs1	12.1%
O=C(NCc1ccccc1)C1c2ccccc2Oc2ccccc21	9.36%
Cc1ccc(CN2CC(C(=O)Nc3cc(C)ccn3)CC2=O)cc1 (centres unmarked)	-0.898%
Cc1cc2nc3n(c2cc1C)CC1CC(C(=O)NCc2ccccc2)N(C)C31 (centres unmarked)	-3.9%
CCOc1ccc2nc(N(CCN(C)C)C(=O)c3ccc4ccccc4c3)sc2c1.Cl	12.1%
S=C(NCc1ccco1)Nc1ccc(Br)cn1	2.18%
O=C(NCCN1CCNCC1)c1ccccc1O	11.9%
CCOC(=O)CCCNC(=O)CN1C(=O)NC2(CCCCCC2)C1=O	10.3%
CC1CCN(S(=O)(=O)c2ccc3c(c2)c(=O)c(C(=O)NCc2ccccc2Cl)cn3C)CC1	6.35%
C=CCC1(CC=C)CCCN1C(=O)CC1C(=O)NCCN1Cc1ccc(OC)c(OC)c1 (centres unmarked)	10.9%
CC1CC(C)CN(c2ncc3c(n2)CC(c2ccccc2Cl)CC3=O)C1 (centres unmarked)	17.9%
CC(C)C(=O)NC(c1ccccc1Cl)c1c(O)ccc2ccccc12 (centres unmarked)	2.17%
CCOC(=O)N1CCC(NC(=O)c2cc(C(=O)Nc3ccc(OC)c(OC)c3)ccc2CO)CC1	4.41%
CCCn1c(N)c(N(CCOC)C(=O)c2cccc(S(=O)(=O)N3CCCc4ccccc43)c2)c(=O)[nH]c1=O	5.62%
Cc1cc(C)c(S(=O)(=O)c2ccc(Cl)cc2)c(Cl)n1	2.22%
COc1ccc(C(=O)N2CCCCCCC2)cc1OC1CCN(C(C)C)CC1	5.45%
CCn1c(SCC(=O)Nc2cccc(OC)c2)nc2c(c1=O)SCC2	-31.5%
C=CCc1ccc(OCC(O)CN2CCN(Cc3ccccc3)CC2)c(OC)c1.Cl (centres unmarked)	-10.6%
CCOC(=O)C1C(c2ccccc2O)NC(=O)NC1(O)C(F)(F)F (centres unmarked)	15.9%
CCOC(=O)c1ccc(Nc2nc(C)cc(=O)[nH]2)cc1	9.96%
COc1ccccc1NC(=O)C(=O)N1N=C(C(C)C)CC1(O)C(F)(F)F (centres unmarked)	14.9%

SMILES	hERG current change (%, negative = inhibition) at 1uM
COc1ccc(OCC(=O)Nc2ccc(Cl)cc2C(=O)c2ccccc2)cc1	8.19%
COc1cccc(CNC(=O)c2cc(S(=O)(=O)N3CCOCC3)cn2C)c1	8.25%
CN(C)C=O.CN(C)c1ccc(/C=C/c2nc3ccccc3c(=O)n2-c2ccc(C(=O)O)cc2)cc1	13.9%
Cc1cc(=O)oc2cc(NC(=O)c3ccc(OC(F)F)cc3)ccc12	12%
CCS(=O)(=O)N1Cc2ccccc2CC1C(=O)Nc1nnc(C2CC2)s1 (centres unmarked)	4.92%
CC(=O)Nc1ccc(NC(C)=C(C#N)C#N)cc1	7.87%
COc1ccc(NC(=O)COC(=O)CN2C(=O)NC(C)(C)C2=O)cc1	1.75%
C/C(=N\NS(=O)(=O)c1ccc([N+](=O)[O-])cc1)c1c[nH]c2ccccc12	1.12%
Cc1ccc2oc(-c3ccc(NC(=O)CC(C)C)cc3)nc2c1	5.3%
Cc1ccc2nc(C(C)O)[nH]c2c1 (centres unmarked)	15.9%
Cc1cc(NC(=O)C(C)C)ncc1NC(=O)c1ccco1	1.82%
CCOC(=O)N1CCN(S(=O)(=O)c2ccc(OCC(=O)OC)c(Cl)c2)CC1	0.861%
Cc1cc(=O)oc2cc(Oc3ncccc3[N+](=O)[O-])ccc12	1.11%
CCCNC(=O)c1cc2c3ccccc3n(C)c2s1	-6.43%
O=c1cccc(-c2ccccc2)[nH]1	-1.8%
CCN(CC)CCOc1ccccc1C(C)=O.O=C(O)C(=O)O	10.4%
O=C(CCCn1cnc([N+](=O)[O-])n1)Nc1ccc(Cl)c(Cl)c1	0.498%
O=C1NCC2=C1C(c1ccccc1)Nc1ccccc1N2 (centres unmarked)	13%
Cc1ccc(-c2c(C(=O)N/N=C/c3sccc3C)nnn2-c2nonc2N)cc1	21.4%
Cc1ccc(-c2cc(C(=O)N/N=C/c3ccc(Cl)cc3)n[nH]2)o1	6.74%
Cc1cc(NC(=O)Cn2c(=O)c3c(ncn3CC(C)C)n(Cc3ccccc3)c2=O)no1	11.5%
O=C(OCC(=O)N1CCC(Cc2ccccc2)CC1)c1ccccc1NCCO	-1.48%
CCSc1nnc(-c2cnn(-c3ccccc3)c2-n2cccc2)n1C	-4.01%

SMILES	hERG current change (%, negative = inhibition) at 1uM
CN1CCN(C(=O)CN(CCc2ccccc2)S(C)(=O)=O)CC1	8.13%
Cc1ccc(CNC(=O)COC(=O)c2cnc(C)cn2)cc1	8.72%
Cc1ccc(C)c(NC(=O)CSc2nc3ccc(N4C(=O)c5ccccc5C4=O)cc3s2)c1	15.6%
CCCN1CCN(CCCNC(=O)c2ccc3c(Cl)c4c(nc3c2)CCCC4)CC1	-4.36%
O=C(CN1c2ccccc2Sc2ccccc21)NNC(=O)Nc1cccc(Cl)c1	5.83%
COc1cc(CCCN2C(=S)NC[C@@H]2CC2CCCCC2)cc(OC)c1OC	11.5%
CC(C)(C)C(=O)Nc1nnc(CSCc2ccccc2F)s1	5.11%
NC(=O)CNC(=O)c1ccc(Cl)cc1	18%
CCC(C(=O)O/N=C(\N)c1cccc(C)c1)c1ccccc1 (centres unmarked)	14.2%
O=C1CCC(=O)N1Cc1c(Cl)cccc1Cl	13%
COc1ccc(/C=N\NC(=O)c2cccc(F)c2)cc1COc1ccccc1	16.1%
CC(=O)c1cc(C#N)c(SCc2ccccc2C#N)nc1C	7.39%
COc1cc(OC)cc(C(=O)N[C@H](C(=O)Nc2cc(C)cc(C)c2)C(C)C)c1	-1.81%
O=C(O)C1CCN(C(=O)CSc2nc3ccccc3c(=O)n2-c2ccc(Cl)cc2)CC1	19.7%
Cn1c(CN2CCC(C(N)=O)CC2)c(C#N)c2ccccc21	13.7%
Cc1ccc(C(=O)N/N=C\c2ccc(OC(=O)c3cccc(F)c3)cc2)cn1	10.3%
CSC1=NCCN1S(=O)(=O)c1ccc(Cl)cc1	8.08%
CCOc1ccc(Cc2nnc(SCC(=O)Nc3c(C)cccc3C)[nH]c2=O)cc1	9.68%
Cn1cc(CN2CCCC(CO)(Cc3cccc(Cl)c3)C2)cn1 (centres unmarked)	3.46%
Cc1ccc(-c2cc(C(=O)Nc3cnn(C(C)C)c3)no2)cc1	22.7%
